Test results taken from publication PMC4336329 (PLoS ONE, 2015).
Out of some 310,000 compounds screened, about 2,200 (0.71%) showed an effect of 50% or more. The effect is printed as a negative number. The list shows a part of the results.

target: human ether-à-go-go-related gene (hERG) potassium channel (human, UniProt Q12809); experiment: primary screen, population patch clamp on CHO cells stably expressing hERG
Sequence (Q12809 whole entry, looked up): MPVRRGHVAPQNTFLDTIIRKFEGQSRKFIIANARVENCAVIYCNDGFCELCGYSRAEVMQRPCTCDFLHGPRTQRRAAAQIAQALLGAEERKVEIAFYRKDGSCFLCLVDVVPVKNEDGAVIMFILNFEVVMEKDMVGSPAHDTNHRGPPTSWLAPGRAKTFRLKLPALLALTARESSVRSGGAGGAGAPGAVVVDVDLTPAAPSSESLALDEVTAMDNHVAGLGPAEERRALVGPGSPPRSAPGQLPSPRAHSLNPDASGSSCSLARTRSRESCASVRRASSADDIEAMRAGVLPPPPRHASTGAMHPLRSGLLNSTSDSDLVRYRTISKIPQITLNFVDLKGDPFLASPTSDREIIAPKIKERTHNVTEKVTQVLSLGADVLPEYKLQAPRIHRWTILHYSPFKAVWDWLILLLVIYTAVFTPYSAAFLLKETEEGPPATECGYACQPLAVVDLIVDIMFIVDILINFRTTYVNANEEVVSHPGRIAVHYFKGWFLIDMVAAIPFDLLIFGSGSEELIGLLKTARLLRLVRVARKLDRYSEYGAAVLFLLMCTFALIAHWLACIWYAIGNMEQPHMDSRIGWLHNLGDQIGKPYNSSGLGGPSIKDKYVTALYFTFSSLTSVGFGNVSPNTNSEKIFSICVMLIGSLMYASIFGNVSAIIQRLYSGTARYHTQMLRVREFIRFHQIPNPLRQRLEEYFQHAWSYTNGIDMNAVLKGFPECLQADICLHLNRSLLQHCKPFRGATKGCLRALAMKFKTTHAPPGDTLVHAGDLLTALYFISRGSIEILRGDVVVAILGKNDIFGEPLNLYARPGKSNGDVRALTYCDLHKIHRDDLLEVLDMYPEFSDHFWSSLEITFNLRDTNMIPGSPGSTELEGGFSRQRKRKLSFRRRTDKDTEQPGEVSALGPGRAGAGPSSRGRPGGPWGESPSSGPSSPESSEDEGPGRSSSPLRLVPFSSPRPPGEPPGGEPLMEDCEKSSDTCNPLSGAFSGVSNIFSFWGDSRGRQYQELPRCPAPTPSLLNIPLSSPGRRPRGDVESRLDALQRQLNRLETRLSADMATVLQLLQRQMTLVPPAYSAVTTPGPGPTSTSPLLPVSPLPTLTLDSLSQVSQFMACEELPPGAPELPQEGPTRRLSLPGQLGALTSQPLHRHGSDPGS

Compound | hERG current change (%, negative = inhibition) at 1uM [%]
Cc1ccn2cc(-c3cccc(NC(=O)C(C)C)c3)nc2c1 | -1.33
Cc1ccccc1NC(=O)NCCCN1CCCC1 | 20
O=C(N/N=C/c1cc2c(cc1Cl)OCO2)c1ccc2c(c1)OCCO2 | 12.6
Cc1ccc(N2CC(C(=O)OCc3nc(N)nc(Nc4ccccc4C)n3)CC2=O)cc1 (stereo not drawn) | 8.04
Oc1cc2c(cc1CN1CCN(c3ccc(F)cc3)CC1)OCO2 | 5.92
O=C(NCc1ccccn1)c1cccc(S(=O)(=O)Nc2ccccc2Cl)c1 | 17
Cc1c(C(=O)N/N=C/c2cccnc2)nnn1-c1nonc1N | 9.92
Cc1nc(N)nc(N/N=C/c2ccccc2)n1 | 11.9
O=C(O)c1cc(C(=O)O)c(-c2ccccc2)c(C(=O)O)c1 | -2.98
NNC(=O)c1ccc(Cn2cc(Br)c(N)n2)cc1 | 18
Cc1onc(-c2ccc(Cl)cc2Cl)c1-c1csc(N/N=C/c2ccccc2Cl)n1 | 8.92
CC1=NN(c2ccc(C(=O)O)c(N)c2)C(=O)C1 | 10.8
CC(C)Nc1nc(NC(C)C)nc(N(C)n2cnnc2)n1 | 12.3
CCOCCCNC(=S)N(CCN(C)C)Cc1cc2cc3c(cc2[nH]c1=O)OCCO3 | 17.8
CCOC(=O)c1sc(NC(=O)CNCc2cccnc2)c(C(=O)OCC)c1C | -3.36
Cc1cc(NC(=O)CSc2nc(-c3ccccc3)c(C#N)c(=O)[nH]2)no1 | -7.8
COc1ccc(-c2nn(-c3ccccc3)cc2C(=O)NC2CC2)cc1 | 1.61
O=C(COc1ccc(F)cc1)Nc1nnc(S(=O)(=O)N2CCCC2)s1 | 9.65
O=C(CCc1ccc(S(=O)(=O)N2CCOCC2)cc1)N/N=C/c1ccc(O)c(O)c1O | 14.9
O=C(Cn1cnc2ccccc2c1=O)Nc1ccc2c(c1)CCC2 | -1.15
N=c1oc2ccc(Br)cc2cc1C(=O)NCc1ccc(F)cc1 | 8.7
COc1cccc(N2CCN(C(=O)Nc3ccccc3Cl)CC2)c1 | 4.75
Cc1ccc(Cn2c(C3CCCN3c3nc(-c4ccc(F)cc4)cs3)nc3cc(C(F)(F)F)ccc32)cc1 (stereo not drawn) | 11.3

Compound | hERG current change (%, negative = inhibition) at 1uM [%]
O=C(CSc1nnc(NC(=O)c2ccco2)s1)NC1CCCCC1 | 6.89
COc1ccccc1CCC(=O)Nc1ccc2c(c1)CN(Cc1ccc(C)o1)CC2 | 11.7
CCCCC(CC)CNC(=O)C(=O)C1C(=O)Nc2ccccc21 (stereo not drawn) | 7.79
O=C(O)C1C2C=CC(C2)C1C(=O)N1CCN(C/C=C/c2ccccc2)CC1 (stereo not drawn) | 14.1
Cc1ccc(S(=O)(=O)N2CCN(CC(O)CN3CCOCC3)CC2)cc1 (stereo not drawn) | 8.25
Cc1cc2c(SCC(=O)N3CCN(c4ccccc4)CC3)ncnc2s1 | 2.95
O=C(/C=C/c1ccco1)c1ccccc1O | 21.3
Cc1ccc(Nc2nc(N)nc(CN3CCCCCC3)n2)c(C)c1 | -21.7
COCCNC(=O)CN1C(=O)NC2(CCCCCC2)C1=O | 7.55
COc1ccc(C(C)=O)cc1COC(=O)CNC(=O)c1cc(C)cc(C)c1 | 10.2
Cc1nnc(SCC(=O)N(C)Cc2ccccc2)[nH]c1=O | 9.19
COCCNC(=O)c1ccc2c(c1)ncn2-c1ccc(C)c(Cl)c1 | -0.576
CC1(C)Cc2c(sc(NC(=O)c3ccc(Br)o3)c2C#N)CO1 | 18.8
Cc1onc(-c2ccccc2)c1C(=O)OCC(=O)Nc1ccc2c(c1)OCO2 | 14.5
COc1ccc(N2C(=O)[C@@H]3[C@H](C2=O)[C@H](C(C)=O)N2c4ccccc4C=C[C@@H]32)cc1 | 9.17
COc1ccccc1CN1C2CCCC1CC(NC(=O)/C=C/c1ccccc1)C2 (stereo not drawn) | -43.8
COC(=O)c1cc2occc2n1Cc1ccc(Cl)cc1 | 9.16
O=C(NC12CC3CC(CC(C3)C1)C2)c1ccc(S(=O)(=O)N2CCOCC2)cc1 | 5.96
O=C(Nc1nnc(C2CC2)s1)C1=NN(C2CCS(=O)(=O)C2)C(=O)CC1 (stereo not drawn) | 1.62
COc1ccc(C2N(Cc3ccccc3)CC(=O)N2/N=C(\C)c2ccccc2)cc1 (stereo not drawn) | 10.9
CCn1c(C)c(C)c2cc(C(=O)NCCCN3CCCCC3C)ccc21 (stereo not drawn) | -5.33
COc1ccc(N(C)S(=O)(=O)c2cccc(C(=O)NC3CCCCC3C)c2)cc1 (stereo not drawn) | 11.8
